Test results reported in PubChem BioAssay AID624296 (National Center for Advancing Translational Sciences (NCATS), 2012).
Among all 350,000 compounds or so, about 9,900 (2.8%) were called active. Inconclusive means that the source gave no clear call. Such entries were picked first, then a sample of the others. Calls follow the shape of the dose curve; as a rule, active = well fitted activation curve with a large enough effect; inconclusive = small, poorly fitted or top-dose-only effect; inactive = no such curve, though single readings can be large or run the other way. Potencies of inconclusive entries are left out as doubtful fits.

Assay: A quantitative high throughput screen for small molecules that induce DNA re-replication in MCF 10a normal breast cells. Also: nearly all actives have a fitted effect of over 50% in size.
Details: MCF 10A DNA re-replication, Hoechst nuclear intensity, 48 h; series mostly up to 46.1 µM
Potency is read from the fitted curve at half-maximal effect; tags tell the direction and shape of the fitted curve.

Compound	Potency
CCOC(=O)CSc1c(-c2ccc(Cl)cc2)[nH]c2ccccc12	inconclusive [activator, single point]
O=C(CN1CCN(c2ccccc2F)CC1)Nc1ccc2c(c1)CCC2	inconclusive [activator, full curve, poor fit]
O=c1[nH][nH]c(-c2ccccc2)c1-c1ccccc1	inactive
COc1ccccc1NC(=O)C(NC(=O)OC(C)(C)C)C(C)OCc1ccccc1 (stereo unspecified)	inconclusive [activator, partial curve, poor fit]
Cc1ccc(S(=O)(=O)CCC(=O)Nc2nc(C(C)(C)C)cs2)cc1	inconclusive [activator, partial curve, poor fit]
CCC(Oc1ccccc1)C(=O)Nc1ccccc1N1CCCCC1 (stereo unspecified)	inconclusive [activator, single point]
COc1ccc(C(=O)C=CNNC(=O)c2ccc(Cl)cc2)cc1	active: 5.8 µM
CCc1ccc(CNc2ccc(O)cc2)cc1	inconclusive [activator, single point]
CCN(C(=O)c1cccc(NC(=O)c2ccccc2)c1)C1CCCCC1	inconclusive [activator, single point]
Cc1cc(NC(=O)C(C)SCC(=O)Nc2cc(C(F)(F)F)ccc2N2CCCCC2)no1 (stereo unspecified)	inconclusive [activator, single point]
COC(=O)/C=C1\S/C(=N\N=C\CC(=O)OC)NC1=O	inactive
CN(C)CCN1C(=O)c2oc3ccccc3c(=O)c2C1c1cccc(Br)c1 (stereo unspecified)	inactive
O=[N+]([O-])c1ccc(Oc2ccc(S(=O)(=O)Nc3ccccc3)cc2)cc1	inconclusive [activator, single point]
COC1(OC)C=CC(=O)C=C1NC(=O)c1ccccc1OC(C)=O	active: 4.11 µM
Cc1ccc(NS(=O)(=O)c2cc(-c3n[nH]c(=O)c4ccccc34)ccc2C)cc1	inconclusive [activator, full curve]
CC(OC(=O)CCC(=O)c1ccc(F)cc1)C(=O)NC1CCCCC1C (stereo unspecified)	inactive
CC1(C)CC(N2CCCC2)=CC(=[N+]2CCCCC2)C1	inconclusive [activator, partial curve, poor fit]
Cc1cc(-c2cccnc2)c(C#N)c(SCC#N)n1	inactive
COc1ccc(C)cc1NC(=O)c1ccc(NS(=O)(=O)c2cccs2)cc1	inconclusive [activator, single point]
COc1cccc(-n2c(CN3CCN(c4ccccn4)CC3)nc3ccc([N+](=O)[O-])cc3c2=O)c1	inactive
OCCCc1nc2ccccc2n1CCc1ccccc1	inactive
CN=C1SC(CC(=O)Nc2c(C)cccc2C)C(=O)N1/N=C/c1cccs1 (stereo unspecified)	inactive
CCCCCCCCN1[C@@H](CC(=O)O)c2cc(F)ccc2S1(=O)=O	inconclusive [activator, full curve, poor fit]

Compound	Potency
COc1ccccc1N(C(=O)c1snc(C(N)=O)c1N)C(C(=O)NCc1ccccc1)c1ccc(C)o1 (stereo unspecified)	inconclusive [activator, single point]
O=C(Nc1ccccc1)c1ccc[n+](Cc2ccc([N+](=O)[O-])cc2)c1	inactive
Cc1ccc(C(=O)O)cc1NC(=O)c1ccc2c(c1)C(=O)N(c1ccc([N+](=O)[O-])cc1)C2=O	inactive
COc1ccccc1NS(=O)(=O)c1cc(NC(=O)CNC(=O)c2ccc(C)s2)ccc1Cl	inactive
COc1ccc(NC(=O)c2cc3ccccn3n2)cc1	inactive
CCn1c(CN2CCN(Cc3ccc(C)cc3)C(CCO)C2)nc2ccccc21 (stereo unspecified)	inconclusive [activator, partial curve, poor fit]
COc1cc(C(=O)N2CCN(S(=O)(=O)c3ccc(C)cc3)CC2)ccc1OCC(=O)N1CCOCC1	inactive
COC(=O)N1CCc2c(sc(NC(=O)C3COc4ccccc4O3)c2C(N)=O)C1 (stereo unspecified)	inconclusive [activator, single point]
CC1CCN(CC(=O)NNC(=O)c2cccc(Br)c2)CC1	inactive
CC(C)(CNS(=O)(=O)c1ccc(F)cc1)CNS(=O)(=O)c1ccc(F)cc1	inconclusive [activator, partial curve, poor fit]
COC(=O)CN1C(=O)C(C)(C)Oc2ccc(C(=O)Nc3ccccc3F)cc21	inactive
CC(C)(C)OC(=O)N1CCC(C(=O)Nc2ccc(C(=O)NC3CC3)cc2)CC1	inactive
COc1ccc2nc(NC(=O)c3ccoc3C)sc2c1	inconclusive [activator, single point]
CNC(=S)N1CCN(S(=O)(=O)c2ccc3ccccc3c2)CC1	inactive
CC(=O)[C@H]1[C@H](CCc2ccccc2)NC(=O)N(Cc2ccccc2)[C@@H]1C	inconclusive [activator, single point]
O=c1c2c(-c3cccs3)csc2ncn1/N=C/c1ccccn1	inconclusive [activator, single point]
O=C(CCCN1C(=O)/C(=C/c2ccccc2Cl)SC1=S)NCCCN1CCOCC1	inconclusive [activator, single point]
COc1ccc(C2=NN(c3nc(-c4ccc(CNC(C)=O)cc4)cs3)C(c3ccco3)C2)cc1 (stereo unspecified)	active: 2.59 µM
CSc1ccccc1NC(=O)CCc1ccccc1	inconclusive [activator, single point]
Cc1ccc(C)c(N2CCN(CCCNC(=O)Cn3cccc3C(=O)c3ccccc3C)CC2)c1	inconclusive [activator, single point]
CN(C(=O)CSc1nc(N)c2c3c(sc2n1)CSC(C)(C)C3)c1ccccc1	active: 8.2 µM
OC(COC(c1ccc(Cl)cc1)c1ccc(Cl)cc1)CN1CCCC1 (stereo unspecified)	inconclusive [activator, full curve, poor fit]
CCOC(=O)N1CCN(C(=O)c2ccc3c(c2)N(Cc2cc(C)ccc2C)C(=O)c2ccccc2S3=O)CC1 (stereo unspecified)	inactive
